Reference: PubChem BioAssay AID1963576 (National Center for Advancing Translational Sciences (NCATS), 2024)
Among all 46,000 compounds or so, about 60 (0.1%) were called active. Not shown: some 3% with an inconclusive outcome. Calls come from the whole dose curve; as a rule, active = well fitted inhibition curve with a large enough effect; inconclusive = small, poorly fitted or top-dose-only effect; inactive = no such curve, though single readings can be large or run the other way. The list shows a part of the results.

experiment: Primary qHTS assay for Inhibitors of ovarian cancer metastasis using an organotypic tumor microenvironment (TME) model.; note: nearly all actives have a fitted effect of over 65% in size; settings: SKOV3ip1-GFP adhesion/invasion on 3D omental model, fluorescence; series mostly up to 45.8 µM; activity change, negative = inhibition: at the top concentration
Source text: PI: Ernst Lengyel MD., Ph.D. Department of Obstetrics and Gynecology, Section of Gynecologic Oncology University of Chicago Medicine, Chicago, Illinois. The tumor microenvironment (TME) is a key determinant of metastatic efficiency. We performed a quantitative high-throughput screen (qHTS) of diverse medicinal chemistry tractable scaffolds (44,420 compounds) and pharmacologically active small molecules (386 compounds) using a layered organotypic, robust assay representing the ovarian cancer metastatic TME. This 3D model contains primary human mesothelial cells, fibroblasts, and extracellular matrix, to which fluorescently labeled ovarian cancer cells are added. Initially, 100 compounds inhibiting ovarian cancer adhesion/invasion to the 3D model in a dose-dependent manner were identified. Of those, eight compounds were confirmed active in five high-grade serous ovarian cancer cell lines and were further validated in secondary in vitro and in vivo biological assays. […] Specifically, NCGC00117362 and PP-121 inhibited ovarian cancer adhesion, invasion, and proliferation, whereas milciclib inhibited ovarian cancer invasion and proliferation. […] To evaluate the clinical potential of NCGC00117362, structure - activity relationship studies were performed. […] The three compounds identified have promise as therapeutics for prevention and treatment of ovarian cancer metastasis.
PROTOCOL TABLE (as described by Inglese J, Shamu CE and Guy RK. 2007) SEQUENCE No. (e.g., 1, 2, 3, etc.); […] (e.g., Cells, Incubation, Reagent, etc.); VALUE; DESCRIPTION. 1; Cells; 4 uL; primary human omental fibroblast, black, clear bottom, low base, 1536-well Aurora assay plate. 2; Incubation; 48 hr; 37C. 3; Cells; 3 uL; 1,200 SKOV3ip1-GFP cells. 4; Compounds; 23nL; acoustic dispenser. 5; Incubation; 2 hr; room temperature. 6; Incubation; 16 hr; 37C. 7; Wash; 5 uL; 1x PBS. 8; Fixing; 5 uL; 4% paraformaldehyde (PFA). 9; Incubation; 15 min; room temperature 10; Wash, 5 uL; 1x PBS. 11; Detection; Fluorescence, excitation filter 488 nm, emission filter 509 nm. NOTES (numbers refer to Sequence numbers above) 1. For the 1,536-well format, 40 primary human omental fibroblasts and 400 mesothelial cells were seeded with 0.02 µg fibronectin and 0.02 µg collagen type I in 4 µL of growth media (2.3 mm2; Supplementary Fig. S1A). 2. Assay plates were incubated for 48 hours at 37 C. 3. After incubation, 1,200 SKOV3ip1-GFP were seeded in 3 µL of serum-free media (growth media minus FBS) on top of primary human omental cells. 4. Compounds or controls were added to each well immediately after the addition of the cancer cells. Compounds were screened in four doses (0.36-46 µmol/L), and the plates contained the positive control (Tomatine) in eight doses (0.035-75 µmol/L) and DMSO (equal volume controls) 5 - 6. The plates were incubated at room temperature for 2 hours and then at 37 degrees C for 16 hours. 7 - 10. Following incubation, the media were aspirated and each well washed with PBS (5 µL) and then fixed with 4% paraformaldehyde (PFA; 5 µL). After 15 minutes, the PFA solution was aspirated, PBS (5 µL) was added. 11. The number of GFP-labeled cells analyzed using a fluorescent cytometer TTP LabTech Acumen eX3 using 488 nm excitation filter and 509 nm emission filter. Data was normalized to the DMSO treated for negative and Tomatine treated wells for positive control. REFERENCES: Inglese J, Shamu CE and Guy RK, Reporting data from high throughput screening of small molecule libraries, Nature Chemical Biology, 2007, 3(8): 438-441. doi.org/10.1038/nchembio0807-438. Yasgar A, Shinn P, Jadhav A, Auld DS, Michael S, Zheng W, Austin CP, Inglese J and Simeonov A, Compound Management for Quantitative High-Throughput Screening. J. Assoc. Lab. Auto., 2008, 13: 79-89. doi: 10.1016/j.jala.2007.12.004.

Activity change, negative = inhibition, inactive:
Cc1ccc2ncc(C(=O)Nc3cccc(C(F)(F)F)c3)c(=O)n2c1 1.74%
CCc1ccc(OCC(=O)NCC(c2ccc(Cl)cc2)N2CCOCC2)cc1 (stereo unspecified) -17.1%
CCCC12CN3CC(C)(CN(C1)C3c1ccc(CC)cc1)C2=O (stereo unspecified) 4.16%
CCOC(=O)c1ccc2ncc(C(=O)OCC)c(NCCc3ccc(OC)c(OC)c3)c2c1 22%
CC(=O)OCC(=O)[C@@]1(O)CC[C@H]2[C@@H]3CCC4=CC(=O)C=C[C@]4(C)[C@@H]3[C@@H](O)C[C@@]21C 17.4%
COc1ccccc1NC(=O)c1sc2cccc(Cl)c2c1Cl 14.8%
CCOc1ccc(CCNC(=O)c2cc3c(=O)n(C)c4ccccc4c3s2)cc1OCC -15.3%
CC(C)c1ccc(NC(=O)c2cc3c(=O)oc4ccccc4c3s2)cc1 -0.0479%
Cc1cccc(NC(=O)CSc2nc3ccccc3c3nc(CCn4cncc4C)nn23)c1 -5.01%
COc1ccc(N2CCN(C(CNC(=O)C(=O)NCc3ccc(C)cc3)c3cccnc3)CC2)cc1 (stereo unspecified) 5.32%
Cc1cccc(N2CCN(C(c3ccc(F)cc3)c3nnc(-c4ccccc4)o3)CC2)c1C (stereo unspecified) -1.14%
CCN1CCN(C(=O)Cn2ncc3c4ccccc4n(Cc4ccccc4F)c3c2=O)CC1 9.06%
O=c1cc2nc(-c3ccccc3)nc(SCc3cccc(Br)c3)n2[nH]1 5.41%
CCNC(=O)c1c(NC(=O)c2cc(=O)c3ccc(C)c(C)c3o2)sc2c1CCCC2 -1.1%
CCCCN(CCCC)C(=O)c1cc2c(=O)n3ccccc3nc2s1 -1.69%
Cc1ccc(Cl)cc1N1CCN(C(=O)C(C)n2ncn3cccc3c2=O)CC1 (stereo unspecified) -1.69%
Cc1cc(C(F)(F)F)c2c(N)c(C(=O)Nc3c(Cl)cccc3Cl)sc2n1 9.39%
O=C(CN1CCN(Cc2ccc(F)cc2)C1=O)NCc1ccccc1 9.09%
Cc1ccc(-n2nc3c(=O)n(CCCC(=O)NCc4ccc(F)cc4)nc(C)c3c2C)cc1 -10.6%
O=C(NCCSc1c(-c2ccc(Cl)cc2)[nH]c2ccccc12)c1ccc(S(=O)(=O)N2CCOCC2)cc1 4.55%
COc1ccc(Nc2ncnc3c2cnn3C)c(OC)c1 0.967%
Cc1nn(-c2ccccc2)c2c1cc1c(=O)[nH]c(=O)nc-1n2-c1cccc(C(F)(F)F)c1 -7.51%
O=S(=O)(Nc1ccc(-c2ccc(N3CCCCCC3)nn2)cc1)c1ccc(C(F)(F)F)cc1 9.1%
CC(C)OCCCNC(=O)CN1C(=O)CSc2ccc(S(=O)(=O)N3CCOCC3)cc21 -2.31%
C=Cc1ccc(Cn2c(C(=O)OC)cc3sc(C)cc32)cc1 4.73%
COc1cccc(NC(=O)CC2Oc3ccccc3NC2=O)c1 (stereo unspecified) 6.73%
CC(=O)c1cccc(Nc2ncnc3c2cnn3-c2cccc(Cl)c2)c1 -13.6%
CC1CCCCN1S(=O)(=O)c1ccc2[nH]c(=O)cc(C(=O)NCCc3ccc(Cl)cc3)c2c1 (stereo unspecified) -16.3%
COC(=O)c1c(NC(=O)c2c(OC)cccc2OC)sc2c1CCCC2 0.291%
CCc1ccc(Nc2nc3c(S(=O)(=O)c4cccc(Cl)c4)nnn3c3ccsc23)cc1 -11.9%
COc1ccc(-n2cc(C(=O)Nc3ccccc3C#N)c3ccccc3c2=O)cc1 1.24%
CNc1nc(Oc2ccc(=O)[nH]n2)nc(N2CCOCC2)n1 2.3%
Nc1nc(F)nc2c1ncn2[C@@H]1O[C@H](COP(=O)(O)O)[C@@H](O)[C@H]1O -16.6%
COc1ccc(OC)c(CNC(=O)CCC(=O)N2Cc3ccccc3Oc3ncccc32)c1 1.22%
COc1ccc(N2CC(NC(=O)C3CCCC3)CC2=O)cc1 (stereo unspecified) 1.29%
COc1ccccc1NC(=O)C1=C(C)Nc2ncnn2C1c1sccc1C (stereo unspecified) 3.7%
Cc1ccccc1CNC(=O)Cn1cc2c(n1)-c1c(oc(C(=O)N3CCCC3)c1C)CC2 -4.39%
Cc1nc(SCCOc2ccc(Cl)cc2)[nH]c(=O)c1Cc1ccccc1 -15.7%
COc1cccc(-n2cc(C(=O)Nc3ccccc3C(N)=O)c3ccccc3c2=O)c1 21.7%
Cc1ccc(NC(=O)CN2C(=O)COc3ccc(S(=O)(=O)N4CCOCC4)cc32)c(Cl)c1 -8.23%
CC(C)(C)c1ccc(S(=O)(=O)N2CCC(c3ccncc3)CC2)cc1 13.8%
CCOc1ccccc1NC(=O)c1nn(-c2ccc(OC)cc2)c(=O)c2c1c1ccccc1n2C 4.81%
O=C(c1cccc([N+](=O)[O-])c1)N1CCN(CCc2ccncc2)CC1 0.319%
Cc1cccc(C(=O)Nc2sc3c(c2C(=O)O)CCCC3)c1 11.6%
Cc1cc(C)cc(NC(=O)CN(C)S(=O)(=O)c2ccc3c(c2)CCC(=O)N3)c1 -2.77%
COc1ccc(N(CC(=O)N2CCN(c3ccc(F)cc3)CC2)S(=O)(=O)c2c(C)nn(C)c2C)cc1 25.7%
CC(=O)c1c(C)oc2ccc(N(C(=O)c3ccncc3)S(=O)(=O)c3ccc(F)cc3C)cc12 -4.04%
Cc1ccc(CNC(=O)c2cnn(-c3ccc(F)cc3F)c2C2CCN(C(=O)OC(C)(C)C)CC2)cc1 0.265%
CCCOc1ccc(CNC(=O)Cn2c(=O)oc3ccccc32)cc1 4.53%
COc1cc(Cl)c(NC(=O)CN(C)S(=O)(=O)c2ccc3[nH]c4c(c3c2)CCCC4)c(OC)c1 4.18%
COc1cccc(CNC(=O)c2cccc(NC(=O)c3nsc4ccccc34)c2)c1 -14.8%
CCc1ccc(Cn2c(CNS(=O)(=O)c3ccc(Cl)s3)nc3cccnc32)cc1 -1.53%
Cc1ccccc1NC(=O)CSc1nnc(-c2cccc(Cl)c2)o1 8.44%
COc1ccc(CNC(=O)C(C)n2nc(C)c3sc4ccccc4c3c2=O)cc1OC (stereo unspecified) 17.8%
CCOC(=O)c1cc2c(=O)n3ccccc3nc2n(CC2CCCO2)c1=NC(=O)c1ccccc1F (stereo unspecified) 3.76%
COc1cccc(CNC(=O)CCS(=O)(=O)c2cc3c4c(c2)CCN4C(=O)CC3)c1 23.8%
NC[C@H]1O[C@H](O[C@H]2[C@@H](O)[C@@H](O[C@H]3O[C@H](CO)[C@@H](O)[C@H](N)[C@@H]3O)[C@H](N)C[C@@H]2N)[C@H](N)C[C@H]1O 1.65%
COc1cc(-c2nc3cnccn3c2Nc2ccc(C(C)C)cc2)ccc1O -21.7%
O=C(CSc1n[nH]c(-c2ccccc2)n1)NCCc1ccccc1 4.85%
Cc1cccc(Nc2ncnc3c2cnn3C)c1C -6.27%
COc1ccc(C)c2sc(N(Cc3cccnc3)C(=O)COc3ccccc3)nc12 2.28%
COc1ccc(NC(=O)c2c(NCc3cccc(OC)c3)sc3c2CCC3)cc1 6.9%
CCc1ccc(S(=O)(=O)Nc2cc(-c3cn4ccccc4n3)ccc2C)cc1 -21.5%
COc1cccc(Nc2cc(-c3ccccc3)nc(C)n2)c1 11.3%
Cc1ccc(C)c(N2CCN(C(=O)c3cc(S(=O)(=O)N4CCCC4)c[nH]3)CC2)c1 -4.36%
Cc1ccc2c(c1)N(C(=O)N1CCC(C(=O)NC3CCCCCC3)CC1)CCO2 -0.267%
Cc1ccc(-n2ncc3c(N4CCN(C)CC4)ncnc32)cc1 -2.3%
COc1cc(OC)cc(C(=O)NCc2ccc3c(c2)CCN3C(=O)c2ccccc2)c1 -0.891%
CC(=O)N1CCCc2cc(S(=O)(=O)NCc3ccc(N(C)C)cc3)ccc21 9.65%
COc1cccc(CNC(=O)c2cc(-c3cccs3)nc3ccccc23)c1 0.987%
COc1ccc(Cn2c(C(=O)O)c(CNC3CCC(C)CC3)c3ccc(C)cc32)cc1 (stereo unspecified) -4.67%
COc1cc(C(=O)N2CCC(c3ccncc3)CC2)cc(OC)c1OC -0.392%
CCOc1ccc(Nc2c(S(=O)(=O)c3ccc(C)cc3)cnc3ccc(OC)cc23)cc1 -0.327%
COC(=O)c1ccc(NC(=O)CC2C(=O)N(c3ccccc3)C(=O)N2C2CCCC2)cc1 (stereo unspecified) 8.55%
COc1cc2nc(NCc3ccccc3Cl)n3nc(-c4cccnc4)nc3c2cc1OC -6.96%
COc1ccc(CC(=O)N2CC(=O)Nc3ccc(Br)cc3C2c2ccc(F)cc2)cc1OC (stereo unspecified) -8.24%

outcome, inactive:
Cc1ccccc1-c1nc(NC(=O)CSc2ncnc3sc4c(c23)CCCC4)ns1
COc1cccc(N2CCN(C(=O)c3cnc4c(C)cccn4c3=O)CC2)c1
O=C(CC(c1cccs1)N1Cc2ccccc2C1=O)Nc1ccccc1 (stereo unspecified)
Cc1cccc(N2CCN(S(=O)(=O)c3ccc(F)c(C(=O)Nc4cccc(Cl)c4C)c3)CC2C)c1 (stereo unspecified)
Cc1ccc2c(c1)-c1onc(C(=O)N3CCN(c4cccc(C)c4C)CC3)c1CO2
Cc1cc(C)c(S(=O)(=O)NCC(c2ccco2)N2CCN(c3ccccc3)CC2)c(C)c1 (stereo unspecified)
COc1cccc(NC(=O)c2oc3ccc(S(=O)(=O)N4CCOCC4)cc3c2C)c1
CC(=O)Nc1c(C(=O)Nc2ccccc2F)oc2ccccc12
COc1ccc2nc(NC(=O)c3nc(SCc4cccc(C)c4)ncc3Cl)sc2c1
CCOc1ccc(NC(=O)Cn2c(=O)n(Cc3ccccc3)c(=O)c3c4c(sc32)CN(C(C)=O)CC4)cc1
COc1ccc(NS(=O)(=O)c2ccc3c(c2)n(C)c(=O)c(=O)n3C)cc1Cl
COc1cccc(CNC(=O)CC(c2ccc(C)cc2)N2Cc3ccccc3C2=O)c1 (stereo unspecified)
CCOC(=O)C(CC)Sc1nnc2[nH]c(=O)cc(C)n12 (stereo unspecified)
CCCOc1ccc(C2C(=O)N(C3CCCCC3)CC(=O)N2CCC2=CCCCC2)cc1OC (stereo unspecified)
COc1ccccc1-c1ccnc2c(-c3ccc(Br)cc3)c(C)nn12
Cc1csc2nc(-c3cccc(NC(=O)c4ccccc4F)c3)cn12
Cc1nn2c(=O)cc(COC(=O)c3ccc(NC(=O)c4ccc(C(C)(C)C)cc4)cc3)nc2s1
CCCOc1ccc(C(=O)Nc2ccc(NC(=O)c3cccc(Cl)c3)cc2)cc1
CN(C)c1ccc(-c2nc(-c3ccncc3)no2)cc1[N+](=O)[O-]
COCCCNC(=O)CSc1nc2nc(C)c(Cc3ccccc3Cl)c(C)n2n1
